Some results are limits rather than exact numbers.

One test has as its system Huh7 cells that stably maintain a subgenomic HCV replicon (S22.3 cell-line). Nature of the test: Cell based HCV RNA replication assay (S22.3 replicon cells, real-time RT-PCR). As to conditions: Hepatitis C virus, Huh-7, 72 h, S22.3 cells, 72 hours incubation, HCV RNA by RT-PCR.
Take `CCn1c(-c2ccoc2)c(C2CCCCC2)c2ccc(C(=O)NC(C)(C)C(=O)Nc3ccc(/C=C/C(=O)O)cc3)cc21` [Entry 2054]: the EC50 (in general, the concentration that produces a half-maximal response) is under 500 nM.
The same measure, in the same setting: as for `CC(C)Cn1c(-c2ccoc2)c(C2CCCCC2)c2ccc(C(=O)NC(C)(C)C(=O)Nc3ccc(/C=C/C(=O)O)cc3)cc21` [Entry 2021], the figure is 500 to 5000 nM.
Same read-out and setting: with `CCN1CCC(NC(=O)c2ccc3c(C4CCCCC4)c(-c4ccoc4)[nH]c3c2)(C(=O)Nc2ccc(-c3csc(C(=O)O)n3)cc2)CC1` [Entry 2067] the figure was 500 to 5000 nM.
On the same count and under the same terms, with `CC(=O)N1CCC(NC(=O)c2ccc3c(C4CCCCC4)c(-c4ccccn4)n(C)c3c2)(C(=O)Nc2ccc(C=CC(=O)O)cc2)C1` (centres unmarked) [Entry 2106] the figure was under 500 nM.
In the case of `O=C(O)/C=C/c1ccc(NC(=O)C2(NC(=O)c3ccc4c(C5CCCCC5)c(-c5ccoc5)n(Cc5ccccc5)c4c3)CCCC2)cc1` [Entry 2040], the EC50 is under 500 nM.
Same read-out and setting: with `Cn1c(-c2ccccc2)c(C2CCCCC2)c2ccc(C(=O)NC3(C(=O)Nc4ccc(/C=C/C(=O)O)cc4)CCCC3)cc21` [Entry 2034] the figure was under 500 nM.
The same measure, in the same setting: with `CC(NC(=O)c1ccc2c(C3CCCC3)c(-c3ccccn3)n(C)c2c1)c1nc2ccc(C=CC(=O)O)cc2[nH]1` (centres unmarked) [Entry 1017] the figure was 500 to 5000 nM.
The same measure, in the same setting: as for `Cn1c(-c2cccnc2)c(C2CCCCC2)c2ccc(C(=O)NC(C)(C)C(=O)Nc3ccc(/C=C/C(=O)O)cc3)cc21` [Entry 2068], the figure is under 500 nM; as for `Cn1c(-c2ccccn2)c(C2CCCCC2)c2ccc(C(=O)NC(C)(C)C(=O)Nc3ccc(NC(=O)C(=O)NO)cc3)cc21` [Entry 2095], under 500 nM; as for `CN1CCC(NC(=O)c2ccc3c(C4CCCCC4)c(-c4ccoc4)[nH]c3c2)(C(=O)Nc2ccc3c(c2)cc(C(=O)O)n3C)CC1` [Entry 2049], 500 to 5000 nM.
`Cn1c(-c2ccoc2)c(C2CCCCC2)c2ccc(C(=O)NC3(C(=O)Nc4ccc(/C=C/C(=O)O)cc4)CCCC3)cc21` [Entry 2006] yielded an EC50 of under 500 nM.
The same measure, in the same setting: as for `Cc1nc([C@H](Cc2c[nH]c3ccc(O)cc23)NC(=O)c2ccc3c(C4CCCC4)c(-c4ccoc4)sc3c2)cs1` [Entry 1024], the figure is 500 to 5000 nM.
For the compound `O=C(O)/C=C/c1ccc(NC(=O)C2(NC(=O)c3ccc4c(C5CCCCC5)c(-c5ccccc5)[nH]c4c3)CCCC2)cc1` [Entry 2035], the EC50 was under 500 nM.
Same read-out and setting: as for `Cn1c(-c2cncc(C(N)=O)c2)c(C2CCCCC2)c2ccc(C(=O)NC(C)(C)C(=O)Nc3ccc(/C=C/C(=O)O)cc3)cc21` [Entry 2103], the figure is under 500 nM; as for `CCN1CCC(NC(=O)c2ccc3c(C4CCCCC4)c(-c4ccoc4)[nH]c3c2)(C(=O)Nc2ccc(CCC(=O)O)cc2)CC1` [Entry 2079], 500 to 5000 nM.
The same measure, in the same setting: as for `O=C(O)/C=C/c1ccc(NC(=O)C2(NC(=O)c3ccc4c(C5CCCCC5)c(-c5ccoc5)[nH]c4c3)CCOCC2)cc1` [Entry 2069], the figure is under 500 nM; as for `Cc1c(C(=O)O)sc2ccc(NC(=O)C3(NC(=O)c4ccc5c(C6CCCCC6)c(-c6ccccn6)n(C)c5c4)CCC3)cc12` [Entry 2111], under 500 nM.
On the same count and under the same terms, with `CN1CCCC(NC(=O)c2ccc3c(C4CCCCC4)c(-c4ccccn4)n(C)c3c2)(C(=O)Nc2ccc(/C=C/C(=O)O)cc2)C1` (centres unmarked) [Entry 2114] the figure was under 500 nM; with `CC(NC(=O)c1ccc2c(C3CCCC3)c(-c3ccccn3)n(C)c2c1)c1nc2ccc(C=CC(N)=O)cc2[nH]1` (centres unmarked) [Entry 1021], under 500 nM.

Still in this test, the particulars now being: Hepatitis C virus, Huh-7, Table 6.
In turn, `CCc1ccnc(-c2c(C3CCCC3)c3ccc(C(=O)NC4(C(=O)Nc5ccc(/C=C/C(=O)O)cc5)CCCC4)cc3n2C)c1` [Entry 6067] had a concentration giving a half-maximal response (EC50) of 500 to 5000 nM.
Same read-out and setting: with `Cn1c(-c2ccc(Cl)cc2)c(C2CCCC2)c2ccc(C(=O)NC3(C(=O)Nc4ccc(/C=C/C(=O)O)cc4)CCC3)cc21` [Entry 6045] the figure was under 500 nM.
The compound `Cn1c(-c2csc(NC(=O)CC(C)(C)C)n2)c(C2CCCC2)c2ccc(C(=O)NC(C)(C)C(=O)Nc3ccc(/C=C/C(=O)O)cc3)cc21` [Entry 6007] returned an EC50 of under 500 nM.
Same read-out and setting: with `Cn1c(-c2ccsc2)c(C2CCCC2)c2ccc(C(=O)NC3(C(=O)Nc4ccc(/C=C/C(=O)O)cc4)CCC3)cc21` [Entry 6040] the figure was under 500 nM.
Same read-out and setting: with `CC(C)C(=O)Nc1nc(-c2c(C3CCCC3)c3ccc(C(=O)NC4(C(=O)Nc5ccc(/C=C/C(=O)O)cc5)CCCC4)cc3n2C)cs1` [Entry 6094] the figure was under 500 nM.
For `CC(=O)Nc1ccc(-c2c(C3CCCC3)c3ccc(C(=O)NC(C)(C)C(=O)Nc4ccc(/C=C/C(=O)O)cc4)cc3n2C)cc1C` [Entry 6005], the half-maximal effective concentration (EC50) is under 500 nM.
On the same count and under the same terms, as for `CN1CCC(NC(=O)c2ccc3c(C4CCCC4)c(-c4cnccn4)n(C)c3c2)(C(=O)Nc2ccc(/C=C/C(=O)O)cc2)CC1` [Entry 6065], the figure is 500 to 5000 nM; as for `Cn1c(-c2csc(-c3cccs3)n2)c(C2CCCC2)c2ccc(C(=O)NC(C)(C)C(=O)Nc3ccc(/C=C/C(=O)O)cc3)cc21` [Entry 6019], under 500 nM.
The same measure, in the same setting: as for `CCNc1nc(-c2c(C3CCCC3)c3ccc(C(=O)NC4(C(=O)Nc5ccc(/C=C/C(=O)O)cc5)CCC4)cc3n2C)cs1` [Entry 6073], the figure is under 500 nM; as for `Cn1c(-c2csc(CS(C)(=O)=O)n2)c(C2CCCC2)c2ccc(C(=O)NC(C)(C)C(=O)Nc3ccc(/C=C/C(=O)O)cc3)cc21` [Entry 6024], under 500 nM.
Same read-out and setting: as for `CN1CCC(NC(=O)c2ccc3c(C4CCCC4)c(-c4cccc(N)n4)n(C)c3c2)(C(=O)Nc2ccc(/C=C/C(=O)O)cc2)CC1` [Entry 6059], the figure is under 500 nM.
In the case of `Cn1c(-c2cccc(N)c2)c(C2CCCC2)c2ccc(C(=O)NC3(C(=O)Nc4ccc(/C=C/C(=O)O)cc4)CCCC3)cc21` [Entry 6052], the EC50 was under 500 nM.
Same read-out and setting: as for `COc1ccc(-c2c(C3CCCC3)c3ccc(C(=O)NC4(C(=O)Nc5ccc(/C=C/C(=O)O)cc5)CCC4)cc3n2C)nc1` [Entry 6123], the figure is under 500 nM; as for `CN1CCC(NC(=O)c2ccc3c(C4CCCC4)c(-c4ccc(N)cc4)n(C)c3c2)(C(=O)Nc2ccc(/C=C/C(=O)O)cc2)CC1` [Entry 6054], under 500 nM.
The same measure, in the same setting: as for `Cc1nc(-c2c(C3CCCC3)c3ccc(C(=O)NC4(C(=O)Nc5ccc(/C=C/C(=O)O)cc5)CCC4)cc3n2C)cs1` [Entry 6075], the figure is under 500 nM.
On the same count and under the same terms, with `CN(C)Nc1nc(-c2c(C3CCCC3)c3ccc(C(=O)NC(C)(C)C(=O)Nc4ccc(/C=C/C(=O)O)cc4)cc3n2C)cs1` [Entry 6032] the figure was under 500 nM.
`Cn1c(-c2csc(CO)n2)c(C2CCCC2)c2ccc(C(=O)NC(C)(C)C(=O)Nc3ccc(/C=C/C(=O)O)cc3)cc21` [Entry 6026]: the EC50 was under 500 nM.
The same measure, in the same setting: with `COc1cccc(-c2c(C3CCCC3)c3ccc(C(=O)NC4(C(=O)Nc5ccc(/C=C/C(=O)O)cc5)CCCC4)cc3n2C)n1` [Entry 6044] the figure was under 500 nM.
The same measure, in the same setting: as for `CN1CCC(NC(=O)c2ccc3c(C4CCCC4)c(-c4ccc(Cl)cn4)n(C)c3c2)(C(=O)Nc2ccc(/C=C/C(=O)O)cc2)CC1` [Entry 6050], the figure is under 500 nM.
The same measure, in the same setting: as for `Cc1nc(-c2nc(-c3c(C4CCCC4)c4ccc(C(=O)NC(C)(C)C(=O)Nc5ccc(/C=C/C(=O)O)cc5)cc4n3C)cs2)cs1` [Entry 6018], the figure is under 500 nM.
Compound `Cc1ccc(-c2c(C3CCCC3)c3ccc(C(=O)NC4(C(=O)Nc5ccc(/C=C/C(=O)O)cc5)CCCC4)cc3n2C)cn1` [Entry 6061] had an EC50 of under 500 nM.
In turn, `CC(=O)N1CCC(NC(=O)c2ccc3c(C4CCCC4)c(-c4ccccn4)n(C)c3c2)(C(=O)Nc2ccc(/C=C/C(=O)O)cc2)CC1` [Entry 6001] gave a 50% effective concentration (EC50) of under 500 nM.
Still for that read-out and setting: as for `CC(=O)Nc1nc(-c2c(C3CCCC3)c3ccc(C(=O)NC4(C(=O)Nc5ccc(/C=C/C(=O)O)cc5)CCCC4)cc3n2C)cs1` [Entry 6086], the figure is under 500 nM; as for `Cn1c(-c2csc(NCC3CCCO3)n2)c(C2CCCC2)c2ccc(C(=O)NC(C)(C)C(=O)Nc3ccc(/C=C/C(=O)O)cc3)cc21` (centres unmarked) [Entry 6021], under 500 nM; as for `C=Cc1c(C2CCCC2)c2ccc(C(=O)NC3(C(=O)Nc4ccc(/C=C/C(=O)O)cc4)CCC3)cc2n1C` [Entry 6084], under 500 nM.

Staying with this test, now noted: Hepatitis C virus, Huh-7, Table 7.
`Cc1ccc(-c2c(C3CCCC3)c3ccc(C(=O)NC4(C(=O)Nc5ccc(-c6ccc(C(=O)O)o6)cc5)CCCC4)cc3n2C)nc1` [Entry 7029] registered an EC50 of under 500 nM.
In turn, `C/C(=C\c1ccc(NC(=O)C2(NC(=O)c3ccc4c(C5CCCC5)c(-c5nccs5)n(C)c4c3)CCC2)cc1)C(=O)O` [Entry 7049] showed a 50% effective concentration (EC50) of under 500 nM.
Same read-out and setting: as for `CCc1ccnc(-c2c(C3CCCC3)c3ccc(C(=O)NC4(C(=O)Nc5ccc(-c6ccc(C(=O)O)o6)cc5)CCCC4)cc3n2C)c1` [Entry 7043], the figure is 500 to 5000 nM; as for `Cc1cccc(-c2c(C3CCCC3)c3ccc(C(=O)NC4(C(=O)Nc5ccc6c(c5)cc(C(=O)O)n6C)CCC4)cc3n2C)n1` [Entry 7023], under 500 nM; as for `Cn1c(-c2cccc(N)c2)c(C2CCCC2)c2ccc(C(=O)NC3(C(=O)Nc4ccc(-c5ccc(C(=O)O)o5)cc4)CCC3)cc21` [Entry 7050], under 500 nM.
The same measure, in the same setting: with `Cn1c(-c2cnccn2)c(C2CCCC2)c2ccc(C(=O)NC3(C(=O)Nc4ccc(-c5ccc(C(=O)O)o5)cc4)CCC3)cc21` [Entry 7036] the figure was under 500 nM; with `Cn1c(-c2ccsc2)c(C2CCCC2)c2ccc(C(=O)NC3(C(=O)Nc4ccc(-c5ccc(C(=O)O)o5)cc4)CCCC3)cc21` [Entry 7052], under 500 nM; with `CCc1ccnc(-c2c(C3CCCC3)c3ccc(C(=O)NC4(C(=O)Nc5ccc(/C=C(\C)C(=O)O)cc5)CCC4)cc3n2C)c1` [Entry 7044], 500 to 5000 nM.
Same read-out and setting: with `Cn1c(-c2ccccn2)c(C2CCCC2)c2ccc(C(=O)NC3(C(=O)Nc4ccc(-c5ccc(C(=O)O)s5)cc4)CCC3)cc21` [Entry 7004] the figure was under 500 nM; with `Cn1c(-c2ccc(N)cc2)c(C2CCCC2)c2ccc(C(=O)NC3(C(=O)Nc4ccc(-c5ccc(C(=O)O)o5)cc4)CCCC3)cc21` [Entry 7017], under 500 nM.
For the compound `Cc1cccc(-c2c(C3CCCC3)c3ccc(C(=O)NC4(C(=O)Nc5ccc(-c6ccc(C(=O)O)o6)cc5)CCC4)cc3n2C)n1` [Entry 7020], the 50% effective concentration (EC50) is under 500 nM.
On the same count and under the same terms, as for `CN1CC[C@@](NC(=O)c2ccc3c(C4CCCC4)c(-c4ccccn4)n(C)c3c2)(C(=O)Nc2ccc(-c3cncnc3)cc2)C1` [Entry 7069], the figure is under 500 nM.

The values are drawn from patent US20060160798A1, “Viral polymerase inhibitors” (Boehringer Ingelheim (Canada) Ltd., priority 2001, published 2006).
